From PubChem BioAssay AID2147 (National Center for Advancing Translational Sciences (NCATS), 2009)
Out of some 230,000 compounds screened, about 3,600 (1.6%) were called active. The shares of active, inactive and inconclusive entries below differ from those in the screen. Calls come from the whole dose curve; as a rule, active = well fitted inhibition curve with a large enough effect (not every such curve was filed as active); inconclusive = small, poorly fitted or top-dose-only effect, or another doubt; inactive = no such curve, though single readings can be large or run the other way. A potency beside an inconclusive call is a rough fit, not a confirmed value.

Target: Lysine-specific demethylase 4E (Homo sapiens) (UniProt B2RXH2)
Assay: qHTS Assay for Inhibitors of Human Jumonji Domain Containing 2E (JMJD2E)
Conditions: JMJD2E catalytic domain, FDH-coupled NADH fluorescence (FDH is formaldehyde dehydrogenase); series mostly up to 57.1 µM; activity change, negative = inhibition: at the top concentration
Note: nearly all actives have a fitted effect of over 50% in size.
Potency is the fitted concentration of half-maximal effect; tags give direction and shape of the fitted curve.
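Throughout, for activity change, negative = inhibition: 0% = wells with enzyme and -100% = buffer wells without enzyme.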

Chain of UniProt B2RXH2 (B2RXH2 whole entry, looked up, the tested form may be a part): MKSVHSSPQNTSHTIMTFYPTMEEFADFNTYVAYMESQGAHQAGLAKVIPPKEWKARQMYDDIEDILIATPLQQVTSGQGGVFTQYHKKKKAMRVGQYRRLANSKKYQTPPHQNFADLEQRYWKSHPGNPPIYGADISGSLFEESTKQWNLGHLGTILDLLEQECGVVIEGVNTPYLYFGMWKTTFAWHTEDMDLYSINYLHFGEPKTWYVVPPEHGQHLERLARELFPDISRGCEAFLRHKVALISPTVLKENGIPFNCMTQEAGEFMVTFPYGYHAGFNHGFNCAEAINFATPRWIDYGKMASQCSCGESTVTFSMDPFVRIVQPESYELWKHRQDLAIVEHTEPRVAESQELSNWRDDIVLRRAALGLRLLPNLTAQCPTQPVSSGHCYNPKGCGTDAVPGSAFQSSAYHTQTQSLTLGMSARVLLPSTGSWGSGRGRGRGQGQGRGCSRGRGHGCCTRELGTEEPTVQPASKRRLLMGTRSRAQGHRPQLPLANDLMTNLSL

Row | SMILES | activity change, negative = inhibition | Potency
1 | COc1ccc(NS(=O)(=O)c2ccc(O)c(C(=O)OCC(=O)NC3CCCCC3)c2)cc1 | inactive: -4.29% | –
2 | Cn1nnc(NC(=O)c2cccc(F)c2)n1 | – | inconclusive: 39.8 µM [inhibitor, single point]
3 | COc1cccc(N2CC(=O)N(NC(=O)CSc3nc(C)cc(C)c3C#N)CC2=O)c1 | – | inconclusive: 25.1 µM [inhibitor, partial curve]
4 | COc1cc(C)ccc1N(CCCN1C(=O)c2cccc3cccc(c23)C1=O)C(=O)c1cccs1 | – | inconclusive: 31.6 µM [inhibitor, single point]
5 | O=C(NCc1n[nH]c(=S)n1-c1ccc(F)cc1)c1ccc(S(=O)(=O)N2CCCC2)cc1 | inactive: -5.73% | –
6 | CCOC(=O)c1ccc(NC(=S)Nc2ccccc2)cc1 | inactive: 5.97% | –
7 | O=C(COc1ccc([N+](=O)[O-])cc1)N/N=C/c1cc([N+](=O)[O-])ccc1N1CCOCC1 | inactive: 1.49% | –
8 | Cc1ccc(C2=NN(C(=O)CCC(=O)O)C(c3cn(-c4ccccc4)nc3-c3ccc(C)cc3)C2)cc1 (stereo unspecified) | – | inconclusive: 35.5 µM [inhibitor, single point]
9 | COc1ccccc1-c1cc2nc(C)c(CCC(=O)NC(C)CCc3ccco3)c(C)n2n1 (stereo unspecified) | – | inconclusive: 39.8 µM [inhibitor, single point]
10 | O=C(Nc1cccc(Cl)c1)C1=Cc2cc(Cl)ccc2OC1 | – | inconclusive: 31.6 µM [inhibitor, single point]
11 | Cc1ccc(Oc2ncccc2/C=N/OCc2ccc(Cl)c(Cl)c2)cc1 | – | inconclusive: 39.8 µM [inhibitor, single point]
12 | Cn1c(=O)c2c(nc(SCCN3CCOCC3)n2Cc2ccccc2Cl)n(C)c1=O | inactive: 5.25% | –
13 | COC(=O)Cc1c(C)c2ccc(OCc3nn[nH]n3)c(C)c2oc1=O | – | inconclusive: 28.2 µM [inhibitor, partial curve]
14 | CCNc1oc(COc2ccccc2F)nc1C#N | inactive: -4.03% | –
15 | CC(C)(C)N(Cc1cc2ccccc2[nH]c1=O)C(=O)c1cccnc1 | – | inconclusive: 22.4 µM [inhibitor, single point]
16 | O=C(CCN1CCCCC1)Nn1c(=S)[nH]c2ccccc2c1=O | inactive: -4.11% | –
17 | c1ccc(-c2noc(-c3ccc4ccccc4c3)n2)cc1 | – | inconclusive: 25.1 µM [inhibitor, single point]
18 | CC(C)CCCC(C)C1CCC2C3CC[C@H]4CC(=O)CC[C@@]4(C)C3CC[C@@]12C (stereo partly specified) | inactive: 0.957% | –
19 | COc1cccc(NS(=O)(=O)c2ccc3[nH]cc(C(=O)N(C)Cc4ccco4)c(=O)c3c2)c1 | inactive: -1.6% | –
20 | Cc1cccc(-n2cc(CN3CCCN(C=O)CC3)c(-c3cccc(F)c3)n2)c1 | inactive: -4.62% | –
21 | COc1ccccc1-c1cn(C(C)(C)C)nc1C | inactive: -1.35% | –
22 | N#CCCCCN1c2cccc3cccc(c23)S1(=O)=O | – | inconclusive: 25.1 µM [inhibitor, partial curve]
23 | CCOc1ccc(S(=O)(=O)Nc2nc3ccc(OC)cc3s2)cc1 | inactive: 2.33% | –

Row | SMILES | activity change, negative = inhibition | Potency
24 | O=C(CSc1nnc(SCc2ccccc2)s1)N/N=C/C=C\c1ccco1 | – | inconclusive: 39.8 µM [inhibitor, single point]
25 | O=c1c2ccccc2n2c(-c3cccc(F)c3)nnc2n1Cc1ccccc1 | – | inconclusive: 35.5 µM [inhibitor, single point]
26 | CCN1C(=O)N/C(=C/c2cc(C)n(Cc3ccccc3)c2C)C1=O | – | inconclusive: 31.6 µM [inhibitor, single point]
27 | Cc1ccc(-c2ncccc2OC(=O)C23CC4CC(CC(C4)C2)C3)cc1 | – | inconclusive: 39.8 µM [inhibitor, single point]
28 | O=C(COC(=O)Cc1ccc(-c2ccccc2)cc1)NCc1ccc(F)cc1 | inactive: 8.02% | –
29 | CCN(CC)C1=N/C(=C\c2ccc(OC)cc2)C(=O)N1c1ccccc1 | – | inconclusive: 39.8 µM [inhibitor, single point]
30 | CCOC(=O)C1CCCN(C(=O)c2cn(C)c(=O)c3cc(OC)c(OC)cc23)C1 (stereo unspecified) | – | inconclusive: 35.5 µM [inhibitor, single point]
31 | C=C1c2cc(C)c(C)cc2NC(=O)N1c1ccccc1 | – | inconclusive: 20 µM [inhibitor, single point]
32 | Cc1cc(C)n2nc(Nc3ccccc3)cc2n1 | – | inconclusive: 35.5 µM [inhibitor, single point]
33 | COc1ccccc1/C=C/C=c1\sc2nc(=O)c(Cc3ccccc3)nn2c1=O | – | inconclusive: 14.1 µM [inhibitor, partial curve]
34 | CCOC(=O)c1ccc(N2C(=O)C3CC=C(C)CC3C2=O)cc1 (stereo unspecified) | inactive: 0.8% | –
35 | Cn1c2ccccc2c2c(C(=O)O)cn(C3CCCC3)c(=O)c21 | – | inconclusive: 8.91 µM [inhibitor, partial curve]
36 | Cc1nnc(SC(C)C(=O)Nc2ncc(Cl)cc2Cl)n1Cc1ccccc1 (stereo unspecified) | inactive: 0.886% | –
37 | COc1cccc2c(Cl)c(CC=C(Cl)Cl)c(C)nc12 | – | inconclusive: 0.0056 µM [inhibitor, full curve, poor fit]
38 | Cc1ccc(NC(=O)c2ccc(OC(F)(F)F)cc2)cc1S(=O)(=O)N(C)C | inactive: 6.57% | –
39 | COC(=O)c1sc(-c2ccccc2)cc1NC(=O)C1CC1 | – | inconclusive: 28.2 µM [inhibitor, partial curve]
40 | CNc1oc(-c2ccc(Cl)cc2)nc1C#N | – | inconclusive: 25.1 µM [inhibitor, partial curve]
41 | CCOc1cc2[nH]c(=O)n(CC3CCC(C(=O)NCCCOC)CC3)c(=O)c2cc1OCC (stereo unspecified) | – | inconclusive: 17.8 µM [inhibitor, partial curve]
42 | O=C(COC(=O)c1ccccc1Nc1ccc(SC(F)F)cc1)NCc1ccco1 | – | inconclusive: 31.6 µM [inhibitor, single point]
43 | CCOC(=O)C(=O)N(Nc1ccccc1C)c1ccccc1C | – | inconclusive: 25.1 µM [inhibitor, single point]
44 | CCCc1ccc(-c2cc(C(=O)NN3CCOCC3)c3ccccc3n2)cc1 | – | inconclusive: 31.6 µM [inhibitor, single point]
45 | CCOC(=O)N1CCC(=NNc2ncc(C(F)(F)F)cc2Cl)CC1 | inactive: -15.8% | –
46 | CCN(CC)c1ccc(N=Nc2ncn[nH]2)cc1 | – | active: 14.1 µM
